Test results from the BET-seq Pho4 binding data (Le et al. 2018).
The list shows a part of the results. The energies were worked out here from pooled read counts, against the library average; single values are noisy.

molecular target: T1, Pho4 (S. cerevisiae) (UniProt P07270); experiment: relative binding free energy (BET-seq); higher = weaker binding; conditions: reference: library average
T1 sequence: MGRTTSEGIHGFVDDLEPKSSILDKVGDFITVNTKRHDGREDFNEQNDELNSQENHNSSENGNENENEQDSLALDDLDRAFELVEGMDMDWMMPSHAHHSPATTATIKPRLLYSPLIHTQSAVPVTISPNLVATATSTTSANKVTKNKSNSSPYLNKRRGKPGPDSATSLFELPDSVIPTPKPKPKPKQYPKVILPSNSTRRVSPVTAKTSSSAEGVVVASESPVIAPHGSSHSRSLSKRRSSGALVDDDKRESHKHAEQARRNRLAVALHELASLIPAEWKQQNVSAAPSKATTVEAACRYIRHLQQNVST

Sequence	relative binding free energy [kcal/mol]
TTTATCACGTGTAACA	0.34
AAATGCACGTGTGGTA	-0.02
GGGTGCACGTGCGGGG	-0.09
GGGGACACGTGTTTTC	0.1
TCGTCCACGTGGTGGG	0.02
TGGGCCACGTGAGAGG	0.09
GAATTCACGTGGTGCA	0.33
TTTAGCACGTGTGCGA	0.02
AATAGCACGTGTTGAA	-0.03
TCGGTCACGTGTCAGG	0.14
GGGTCCACGTGCAGGT	-0.07
GGCTTCACGTGTCTGT	0.32
GGAATCACGTGTTAGA	0.18
TTCTACACGTGGTGTA	-0.04
TGTGCCACGTGGAGTT	-0.02
TTGTACACGTGAAAAG	0.33
GGAGTCACGTGGGTAT	0.12
CGTGCCACGTGGGTGT	-0.24
TGTGGCACGTGAAATG	0.11
TGTGTCACGTGGACGA	0.06
TAGCGCACGTGGTATT	-0.21
TTTTACACGTGCACGG	0.03
TGCGGCACGTGGGGGA	-0.24

Sequence	relative binding free energy [kcal/mol]
GGTTACACGTGCGTCT	0.17
GTTTACACGTGAGTGG	0.36
ATGGGCACGTGTATAT	-0.16
ACTGGCACGTGAGGGC	0.12
GGCGTCACGTGGAGAT	0.09
AGAAACACGTGTGGTG	-0.08
GCTTTCACGTGTTGTC	0.39
TTGGTCACGTGATGCG	0.24
TTTACCACGTGTGATG	0.01
GGGGGCACGTGGTTGT	-0.1
GGGTTCACGTGGGATC	0.26
TTGGACACGTGTCGGT	0.12
CTAGGCACGTGGTTCT	-0.08
AGTGGCACGTGGGGAC	-0.27
ATGTCCACGTGGGGTC	0.06
TTTGACACGTGTTTAA	-0.11
TGCTACACGTGGGTAG	-0.04
TTTTGCACGTGATAGT	0.11
TTTGTCACGTGTCAAA	0.18
GGGTACACGTGTGTAT	0.2
GGGGTCACGTGGCTCA	0.02
CGGTTCACGTGGGTTC	0.28
GATGACACGTGGGGAG	0

Sequence	relative binding free energy [kcal/mol]
TTGTACACGTGAGTGT	0.27
CTGTGCACGTGCGTAG	-0.03
TTGAGCACGTGATATA	-0.06
AAGGTCACGTGATGGA	0.31
TTGTTCACGTGTTTAC	0.42
TGGTGCACGTGCGTTC	-0.09
CGTGCCACGTGCGTGG	-0.18
CTGATCACGTGGGTCG	0.06
ATTGCCACGTGAGGGT	0.01
ACAGTCACGTGGGGTT	-0.11
CCAGGCACGTGGTGGA	-0.09
TTTGACACGTGTAATG	0.25
TTGTCCACGTGGTGGT	0.01
AGAGTCACGTGGTGAT	0.08
TGGAACACGTGTAGGA	0.14
GGGGACACGTGTGTTG	0.11
GATCTCACGTGTTTGG	0.21
GGAAGCACGTGCGGGG	-0.15
CTAGTCACGTGCTTGT	0.11
GTAGGCACGTGGACGT	-0.1
GTTTTCACGTGACGAT	0.42
TGTATCACGTGTTAGA	0.11
ATATGCACGTGATGTA	0.05

Sequence	relative binding free energy [kcal/mol]
GAGGACACGTGTCGTG	0.1
TTTAACACGTGACTGT	0.2
ATGTGCACGTGTAGTA	0.07
TTGGGCACGTGCGGCT	-0.2
AGGAACACGTGGGTCT	-0.09
AGTGGCACGTGTCGCG	-0.19
TATGTCACGTGAAGAA	0.23
TTTGTCACGTGAAGTG	0.29
ATGTTCACGTGAGGAA	0.39
GTGTTCACGTGTTCTC	0.3
GTAGCCACGTGATTTA	0.25
TTTAGCACGTGTATAG	-0.13
GTGAGCACGTGGATTG	-0.04
GGTGACACGTGTGTGA	0.06
ATACTCACGTGAGGGT	0.35
TTTATCACGTGTGGAT	0.19
TTAGGCACGTGTATCT	-0.11
TCGTGCACGTGGGGGC	-0.2
GGCGGCACGTGTGGGG	0.01
GTGGGCACGTGTAGAT	0.3
ATAATCACGTGCGGGT	0.09
CATGTCACGTGGGGAA	0.09
CATGGCACGTGAATGG	0.21

Sequence	relative binding free energy [kcal/mol]
TAGATCACGTGGAGGG	0.26
AAGAGCACGTGTCGGG	-0.05
AGATACACGTGGGAGA	0.01
GTGTTCACGTGTGTAT	0.27
TGTGACACGTGTCTGA	0
ATTTGCACGTGATGGC	0.21
TGAAACACGTGGGGAG	-0.03
GCGTACACGTGAGGGG	0.24
GTGTACACGTGGTAGC	-0.06
AATGGCACGTGGAGCG	0.05
TTATTCACGTGTGTGG	0.3
GGAGTCACGTGTGTTG	0.29
TAGTCCACGTGATTTT	0.1
TCGGTCACGTGTTTTC	0.24
GCTTACACGTGTGTTT	0.2
GTGCTCACGTGAGTGG	0.35
TATGTCACGTGCAAGT	0.16
GTAGCCACGTGGTGAG	-0.03
CTTGGCACGTGAAATT	0.2
TAAATCACGTGGTCGG	-0.07
TTATACACGTGATTGT	0.11
ACCGACACGTGTGGGG	0.09
TTAGCCACGTGGCGGG	-0.2
